Reference: ChEMBL document CHEMBL1157539, “Thousands of chemical starting points for antimalarial lead identification” (Nature, 2010)
The full ranking holds about 13,000 compounds; the median of “IFI” is about 4, and the highest 2% start at about 17. The list shows a part of the results.

assay: GSK_TCMDC: Inhibition Frequency Index (IFI). The number of non-kinase HTS assays where a compound showed > 50 % inhibition, expressed as a percentage of the number of such assays in which the compound was tested (-0 is zero); type: functional

SMILES	IFI [%]
CCC(CC)N1CCN(CC(=O)Nc2ccc([N+](=O)[O-])cc2C(=O)Nc2cccc(OC)c2)CC1	1.43
O=C(NCc1ccc(Cl)c(Cl)c1)c1ccc(C2CCN(Cc3ccc4[nH]cnc4c3)CC2)cc1	2
COc1cncc(/C=C/c2cncc(C(=O)NCCc3ccc(Cl)cc3Cl)c2)c1	1.43
COc1ccc(CNCc2ccccc2)cc1-c1ccc(S(=O)(=O)NCCN2CCCC2)c(C)c1	10.7
CC(C)(C)c1ccc(NC(=O)c2cccc(CN3CCCN(CC4CCCCC4)CC3)c2)cc1	9.35
O=C(Nc1cccc(CN2CCN(Cc3ccc(O)cc3)CC2)c1)c1cc2ccccc2o1	0
O=C(Nc1cccc(-c2csc(-c3nc4ccccc4[nH]3)c2)c1)c1cccnc1	1.87
COc1ccc(-c2cccc(NC(=O)c3cccc(Cl)c3)c2)cc1CNC(C)C	5.33
N#CN1CC[C@@H](OC(=O)N[C@@H]2C[C@H]2c2ccccc2)C1	-0
Cc1ccc(-n2c(Cc3cccc4ccccc34)nnc2SCCC#N)c(C)c1	1.53
O=C(/C=C/c1ccc(Cl)c(Cl)c1)NCCCCCN1CCC(c2cn[nH]c2-c2ccccc2)CC1	4.41
Nc1nc(N)c2c(Sc3ccccc3)cccc2n1	4.62
COc1cccc(NC(=O)Nc2ccc(C)c(-c3ccc(C(=O)Nc4ccncc4)cc3)c2)c1	26.8
O=C(Nc1cccc(-c2nn3ncccc3c2-c2ccnc(Nc3cccc(-c4cnco4)c3)n2)c1)c1c(F)cccc1F	5.04
CCCc1ccc(S(=O)(=O)NC2CCN(c3ccnc(Nc4ccc(F)cc4)n3)C2)cc1 (centres undefined)	16.2
COc1ccc2c(c1)Nc1ccc(Cl)cc1C2N (centres undefined)	7.81
NC(=O)Nc1ccc2c(Nc3ccc(OCc4ccccc4)cc3)ncnc2c1	-0
CN1CCN(c2ccnc3ccc(NC(=O)Nc4cccc5c(Br)cccc45)cc23)CC1	5.88
OCC1CCN(Cc2ccc(-c3ccc(-c4nc5ccccc5[nH]4)cc3)cc2)CC1	2.82
CC(C(=O)OCCOCn1cnc2c(=O)[nH]c(N)nc21)N(C)C(=O)OC(C)(C)C (centres undefined)	0

SMILES	IFI [%]
CC(C)(C)c1ccc(CN2CCC(NC(=O)c3cc(-c4cccc(C(F)(F)F)c4)cs3)C2)cc1 (centres undefined)	7.14
Cn1c(Nc2nnc(C3CC3)s2)nc2cc(Nc3ccnc(Nc4cccc(CS(C)(=O)=O)c4)n3)ccc21	2.83
Cc1ccc(NC(=O)Cc2noc(CC3CCCN3C(=O)N[C@@H](C)c3ccccc3)n2)cc1 (some centres undefined)	-0
Nc1c(Cl)cc(C(O)CNCCCCCCOCCc2ccc(O)cc2)cc1Cl (centres undefined)	5.08
O=C(NC(Nc1ccc([N+](=O)[O-])cc1)C(Cl)(Cl)Cl)c1cccc(Cl)c1 (centres undefined)	13.9
Cc1ccc(C(=O)Nc2cccc(CN3CCCN(Cc4ccc(O)cc4)CC3)c2)s1	0.69
N=C(N)NC(=O)Nc1ccc(Cl)c(Cl)c1	1.52
Cc1cccc2nc(-c3cccc(-c4cccc(NC(=O)Nc5ccccc5)c4)c3)[nH]c12	2.02
Nc1nc(N)c2c(ccc3ccccc32)n1	4.26
CC(=O)Nc1ccc(COc2ccc(Nc3ccnc4cc(-c5ccccn5)ccc34)cc2)cc1	9.03
NC(=O)c1cccc(C(=O)Nc2cccc(-c3cccc(-c4nc5ccccc5[nH]4)c3)c2)c1	3.81
COc1ccc(C(=O)Nc2ccc(-c3nc4cc(C)ccc4[nH]3)cc2)cc1OC	5.93
CCNc1cc(C(=O)N[C@@H](Cc2ccccc2)[C@H](O)CNCC(C)C)cc(N2CCCC2=O)c1	-0
COc1cccc(-c2ccc3c(-c4cccc(S(C)(=O)=O)c4)cnc(N)c3c2)c1	11.5
Cc1cc(N[C@@H](CC(C)C)C(=O)Nc2ccccc2)nc(NCc2ccccc2C)n1	9.52
CCCCCCCN1CC[C@@H](CCCc2ccnc3ccc(OCCN4CCOCC4)cc23)[C@@H](CC)C1	8.76
CCCCCc1cnc2nc(N)nc(N)c2c1C	1.42
O=C(N[C@@H](Cc1ccccc1)[C@H](O)CNC1CCc2ccccc2C1)c1cc(C2CCCC2)cc(N2CCCC2=O)c1 (some centres undefined)	10.3
CC(=O)Nc1cc(C(=O)Nc2cccc(-c3cccc(-c4nc5cccc(C)c5[nH]4)c3)c2)ccc1C	5.88
O=S(=O)(Nc1cc2c(cc1OCc1ccccc1)CCN(C1CCC1)CC2)c1ccc(-c2ccc(Cl)cc2)cc1	5.84

SMILES	IFI [%]
Cc1nc2nc(N)nc(N)c2c(C)c1Cc1cccc(C#N)c1	0.72
COc1ccc(OCCCON2C(=N)N=C(N)NC2(C)C)cc1	2.88
CCN(CC)CCN(Cc1ccc(-c2ccc(C(F)(F)F)cc2)nc1)C(=O)Cn1c(SCc2ccc(F)cc2)nc(=O)c2sccc21	6.62
CC(C)CNCc1cccc(-c2cccc(CNc3ccc4ncccc4c3)c2)c1	7.91
Cc1ccc(O)c(C(=O)c2cc(C(=O)Nc3ccccc3C)c(=O)n(-c3ccccc3C)c2)c1	1.4
O=c1cc(NCCCNC2CCOc3c(I)cc(Cl)cc32)[nH]c2ccccc12 (centres undefined)	8.61
COc1cc(Nc2nccc(Nc3ccc4c(C)n[nH]c4c3)n2)cc2ccccc12	9.03
CC(=O)Nc1nc(C(=O)Nc2cccc(-c3ccc(-c4nc5ccccc5[nH]4)cc3)c2)cs1	7.02
OCCOCn1cnc2cnc(N[C@H]3OC[C@H](O)[C@@H](O)[C@@H]3O)nc21	-0
CN(C)CCCOc1ccc(CCNCc2cccc(Oc3ccc(Cl)cc3)c2)cc1	7.97
O=C(Nc1ccccc1C(F)(F)F)Nc1nn(Cc2c(F)cccc2Cl)cc1Br	3.48
Fc1cccc(COc2ccc(-n3ccc4c(NCCCn5ccnc5)ncnc43)cc2Cl)n1	5.76
COc1ccc(-c2onc(C(F)(F)F)c2-c2ccc(Br)cc2)c(O)c1	10
CN1CCN(CCCCNc2c3ccccc3nc3ccccc23)CC1	6.21
Cn1nccc1C(=O)NCCNCc1ccc(-c2cccc(-c3nc4ccccc4[nH]3)c2)cc1	4.85
COc1cccc(C(=O)Nc2sc3c(c2C(N)=O)CCCC3)c1OC	0.79
N#Cc1ccc2c(c1)CCN(CCC1CCC(NC(=O)/C=C/c3ccc4ccccc4c3)CC1)CC2 (centres undefined)	1.4
Cc1ccccc1N1CCN(c2ccc(C(=O)NC3CC3)cn2)CC1	5.88
COc1ccccc1Nc1nc(C)cc(NCc2ccc(-n3ccnc3)cc2)n1	4.69
